The CheMixHub viscosity set
The source gives many values for each of these; only a part stands here.

Experiment: xn = mol fraction of the nth substance listed
Settings: 101 kPa

CC(C)(C)O + O
Settings	viscosity [mPa·s]
298.15 K, x1 = 0.6995	4.57
298.15 K, x1 = 0.7005	4.19
298.15 K, x1 = 0.7978	4.399
298.15 K, x1 = 0.7984	4.05
298.15 K, x1 = 0.8976	4.352
298.15 K, x1 = 0.8987	4
303.15 K, x1 = 0.098	2.482
303.15 K, x1 = 0.1	2.578
303.15 K, x1 = 0.2001	3.548
303.15 K, x1 = 0.217	3.581
303.15 K, x1 = 0.3	3.935
303.15 K, x1 = 0.301	3.894
303.15 K, x1 = 0.3997	3.983
303.15 K, x1 = 0.445	3.915
303.15 K, x1 = 0.5	3.811
303.15 K, x1 = 0.5001	3.897
303.15 K, x1 = 0.592	3.646
303.15 K, x1 = 0.5989	3.749
303.15 K, x1 = 0.694	3.488
303.15 K, x1 = 0.6995	3.594
303.15 K, x1 = 0.79	3.33
303.15 K, x1 = 0.7978	3.451
303.15 K, x1 = 0.8976	3.38
303.15 K, x1 = 0.905	3.258
308 K, x1 = 0.001	0.731
308 K, x1 = 0.005	0.783
308 K, x1 = 0.01	0.855
308 K, x1 = 0.02	1.007
308 K, x1 = 0.03	1.175
308 K, x1 = 0.04	1.336
308 K, x1 = 0.05	1.501
308 K, x1 = 0.06	1.651
308 K, x1 = 0.08	1.926
308 K, x1 = 0.1	2.178
308 K, x1 = 0.15	2.724
308 K, x1 = 0.2	2.944
308 K, x1 = 0.25	3.109
308 K, x1 = 0.3	3.209
308 K, x1 = 0.35	3.209
308 K, x1 = 0.4	3.208
308 K, x1 = 0.5	3.077
308 K, x1 = 0.6	2.957
308 K, x1 = 0.7	2.801
308 K, x1 = 0.8	2.678
308 K, x1 = 0.85	2.636
308 K, x1 = 0.88	2.613
308 K, x1 = 0.9	2.603
308 K, x1 = 0.92	2.594
308 K, x1 = 0.95	2.59
